From ChEMBL document CHEMBL1201862, “PubChem BioAssay data set” (2004) come the findings set out here.

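Results reflect a 48-hour exposure of cells in 96-well plates to compound at five concentrations. Here, GI50 denotes the concentration required for 50% inhibition of growth.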 Activity calls are given as the source filed them. Cut-off read from the data, not from the text of the source: active = GI50 up to about 1.1 µM and inactive = higher.

The test system of the assay is NCI-H322M. Description: NCI tumour cell line growth inhibition, 48 h.
With `C=C[C@H]1CN2CCc3c([nH]c4c([C@@H]5CCCN5C)c(O)ccc34)[C@@H]2C[C@@H]1C[C@H]1c2[nH]c3ccccc3c2CCN1C`, the GI50 was inactive: 1.59 µM.

Turning to `Oc1c(CN2CCN(c3ccccc3)CC2)cc(Br)c2cccnc12`, the GI50 was inactive: 1.85 µM.

Take `O=C(O)CSc1ccc([N+](=O)[O-])cc1[N+](=O)[O-]`: the GI50 is inactive: > 100 µM.

Take `CC(O)c1cc2c(s1)C(=O)c1ccsc1C2=O` (configuration not stated): the GI50 is active: 0.265 µM.

As to `CC(C)c1cc(CN(C)C)c(O)c(C(C)(C)C)c1`, the GI50 was inactive: > 100 µM.

As to `CC(C)CCCCCCCCCCCCC(=O)NCC(=O)NC1C(C)OC(Nc2[nH]cnc3ncnc2-3)C(O)C1O` (configuration not stated), the GI50 is active: 0.00141 µM.

On to `O=C(O)Cn1ccnc1[N+](=O)[O-]`, for which the GI50 was inactive: > 100 µM.

`O=C(O)c1cc(C(=O)O)cc(N2C(=O)c3ccccc3C2=O)c1`: the GI50 was inactive: > 100 µM.

Take `C=C(NC(=O)C(=C)NC(=O)c1csc(C2=NC3c4csc(n4)C4NC(=O)c5csc(n5)C(C(C)(O)C(C)O)NC(=O)C5CSC(=N5)/C(=C/C)NC(=O)C(C(C)O)NC(=O)c5csc(n5)C3(CC2)NC(=O)C(C)NC(=O)C(=C)NC(=O)C(=C)NC(=O)C(C(C)C)NC2C=Cc3c(C(C)O)cc(nc3C2O)C(=O)OC4C)n1)C(N)=O` (configuration not stated): the GI50 is inactive: 44.5 µM.

In the case of `CC1CC2OC(=O)C(C)C2CC2(C)C(OC3OC(CO)C(O)C(O)C3O)OCCC12` (configuration not stated), the GI50 was inactive: > 100 µM.

`Cc1cc(C)c(C(=O)c2no[n+]([O-])c2C(=O)c2c(C)cc(C)c(Br)c2C)c(C)c1Br`: the GI50 is inactive: 15.4 µM.

`C[C@H](CCCOS(C)(=O)=O)[C@H]1CC[C@H]2[C@@H]3CC[C@@H]4C[C@H](OS(C)(=O)=O)CC[C@]4(C)[C@H]3CC[C@]12C`: the GI50 is inactive: 18.9 µM.

Regarding `Cc1cccc2c(N)c3cccc(C(=O)NCC[N+](C)(C)Cc4ccc([N+](=O)[O-])s4)c3nc12`, the GI50 was inactive: 4.94 µM.

In the case of `O=C(c1ccccc1)C1OC12C(=O)Nc1c(Cl)cc(Cl)cc12` (configuration not stated), the GI50 was inactive: > 100 µM.

Regarding `O=C1[C@@H]2C3SC(c4ccccc43)[C@@H]2C(=O)N1c1ccccc1`, the GI50 was inactive: > 100 µM.

As to `CCOc1cc(CCNC)c2c(ccc3ccc(OC)c(O)c32)c1OC`, the GI50 was inactive: 15.8 µM.

For the molecule `COc1ccc(CC2c3cc4c(cc3CCN2C)OCO4)c(C=O)c1OC` (configuration not stated), the GI50 is inactive: > 100 µM.

Regarding `CC12CCC(=O)N1c1cnccc1N2` (configuration not stated), the GI50 is inactive: > 100 µM.

For `O=C(CSC1=NCCN1)Nc1ccccc1`, the GI50 was inactive: 49.8 µM.

Take `COc1ccc(C2SCc3nc4ccccc4n32)cc1` (configuration not stated): the GI50 is inactive: 5.02 µM.

Turning to `O=C(CC(Cc1ccccc1)c1ccc(Oc2ccccc2)cc1)Nc1cccc(Cl)c1` (configuration not stated), the GI50 is inactive: 7.85 µM.

In the case of `CC1=CCC2CC1C(C(=O)c1c[nH]c3ccccc13)=NC2(C)C` (configuration not stated), the GI50 is inactive: > 100 µM.

For the molecule `CCCNC(=S)N/C=C1/C(=O)C=C(C)OC1=O`, the GI50 is inactive: > 100 µM.

`C1=C\SS/C=C\SS/1`: the GI50 was inactive: 61.2 µM.

`Cc1cccc(NC(=O)C(=O)C(C2OC(=O)c3ccccc32)[N+](=O)[O-])c1C` (configuration not stated): the GI50 is inactive: 16.3 µM.

Consider `CC(=O)NNc1nc(C)c(C(=O)NNC(=O)C(=O)Nc2nc3ccc([N+](=O)[O-])cc3s2)s1`, for which the GI50 is inactive: 45.9 µM.

On to `CCCC(O)c1cn(-c2cccc(S(=O)(=O)O)c2)nn1` (configuration not stated), for which the GI50 is inactive: > 100 µM.

For the molecule `COc1ccc2c(c1)OC[C@@H]1c3cc4c(cc3O[C@H]21)OCO4`, the GI50 was inactive: > 100 µM.

As for `C/C(=N\NS(=O)(=O)c1c(C)cc(C)cc1C)c1ccc[n+]([O-])n1`, the GI50 was inactive: 45.1 µM.

For `CC(=O)Oc1ccc(CO)cc1OC(C)=O`, the GI50 is inactive: > 100 µM.

In the case of `CC(C)/C(Cl)=N\OC(=O)Nc1ccc(F)cc1`, the GI50 was inactive: 11.9 µM.

As to `COC1CC(OC)C2OC(c3ccccc3)OCC2O1` (configuration not stated), the GI50 is inactive: > 100 µM.

Take `COC(=O)C1C(O)C(C(=O)OC)C(C)N(C)C1C` (configuration not stated): the GI50 was inactive: > 100 µM.

With `CC/C(CC(=O)CCC(=O)Nc1ccc(C)c(C)c1)=N\NC(=O)c1cc2ccccc2cc1O`, the GI50 is inactive: 28.8 µM.

For the molecule `NC(=O)CC1OC(=O)Cc2cc3c(c(O)c21)C(=O)c1c(O)cccc1C3=O` (configuration not stated), the GI50 is inactive: > 100 µM.

As for `O=C(O)c1ccccc1CC1Cc2ccccc2C1=O` (configuration not stated), the GI50 is inactive: > 100 µM.

For the molecule `O=C(CNC(=O)OCc1ccccc1)NCCCCC(NC(=O)OCc1ccccc1)C(=O)O` (configuration not stated), the GI50 is inactive: > 100 µM.

In the case of `COC(=O)C1=C(SC)SC2(C(=O)OC)C3C=C(C)C4C(N13)C42C(=O)OC` (configuration not stated), the GI50 was inactive: > 100 µM.

With `Cc1cc(NS(=O)(=O)c2ccc(NC(=O)COC(=O)c3cccc4c(=O)c5ccccc5[nH]c34)cc2)no1`, the GI50 was inactive: > 100 µM.

With `CC1SCCc2nc3ccccc3n21` (configuration not stated), the GI50 is inactive: > 100 µM.

Take `CC(C)=CCC/C(C)=C/CC/C(C)=C/CC/C(C=O)=C/CC/C(C)=C\CC/C(C)=C/CC/C(C)=C/CC/C(C)=C/CC1=CC(=O)C=CC1=O`: the GI50 is inactive: > 100 µM.

Take `COc1ccc(/C(Cl)=C(\C=O)c2ccc(Cl)cc2)cc1OC`: the GI50 is inactive: 5.56 µM.

In the case of `COc1ccc(C(=C(I)c2ccccc2)c2ccc(OC)cc2)cc1`, the GI50 was inactive: > 100 µM.

For `COc1cc(/C=C2\C(=O)N(c3ccccc3)C(c3ccccc3)S2(=O)=O)cc(OC)c1OC` (configuration not stated), the GI50 is inactive: 88.7 µM.

For `O=CC1OC(=O)c2cc(O)c(O)c(O)c2-c2c(cc(O)c(O)c2O)C(=O)OC1C1OC(=O)c2cc(O)c(O)c(O)c2-c2c(O)c(O)c3oc(=O)c4c(c(O)c(O)c5oc(=O)c2c3c54)-c2c(cc(O)c(O)c2O)C(=O)OCC1O` (configuration not stated), the GI50 was inactive: 18.7 µM.

With `COc1cc(/C=C2/SC(c3ccccc3)N(Cc3ccccc3)C2=O)cc(OC)c1OC` (configuration not stated), the GI50 is inactive: 72.6 µM.

As for `CN1CCc2[nH]c3ccccc3c2C1`, the GI50 was inactive: > 100 µM.

Turning to `CC1=C(C(=O)Nc2ccccc2C)C(c2ccccc2C)C(C(=O)Nc2ccccc2C)=C(C)N1`, the GI50 was inactive: 29.9 µM.

With `O=S(OC12CC3CC(CC(C3)C1)C2)c1cc(Cl)cc(Cl)c1OCc1ccccc1` (configuration not stated), the GI50 was inactive: > 100 µM.

On to `N#Cc1c(Cl)c(C=O)c(=O)n2c1[nH]c1ccccc12`, for which the GI50 was inactive: 30.6 µM.

Consider `CC(=O)C(C(=O)c1ccc(C)cc1)[C@H]1OC(C)(C)O[C@H]1[C@H]1COC(C)(C)O1` (some centres not stated), for which the GI50 was inactive: 8.41 µM.

In the case of `CS(=O)(=O)c1nc(-c2cc3c(c(S(C)(=O)=O)n2)CCC3)cc2c1CCCC2`, the GI50 is inactive: > 100 µM.

Turning to `COc1ccc(O)c(C#N)c1C#N`, the GI50 is inactive: > 100 µM.

Regarding `Oc1ccccc1/C=N/c1ccc(Oc2ccc(Cl)cc2)c(Cl)c1`, the GI50 was inactive: 22 µM.

Regarding `NC(=O)Cc1nc2c(O)ncnc2n1C1OC(CO)C(O)C1O` (configuration not stated), the GI50 was inactive: > 100 µM.

Take `C=C1C(=O)O[C@H]2C[C@@]3(COC(C)=O)C=COC=C(COC(=O)C(C)C)C3CC12` (some centres not stated): the GI50 was inactive: > 100 µM.

As to `O=C1CCCNn2c(nc3ncccc3c2=O)N1`, the GI50 was inactive: > 100 µM.

`CCCCc1ccc(Nc2nc(Cl)c3ncn(C4CC(Oc5ccc(C)cc5)C(COc5ccc(C)cc5)O4)c3n2)cc1` (configuration not stated): the GI50 was inactive: > 100 µM.

Turning to `O=C(Cc1nc2ccccc2s1)C(=O)Nc1ccc(Cl)cc1Cl`, the GI50 is inactive: > 100 µM.

Consider `Cc1cccc2c3ccc4c(c3n(C)c12)C(=O)C=CC4=O`, for which the GI50 is inactive: > 100 µM.

Consider `COc1nc2c(nc(N)n2C2OCC(O)C(O)C2O)c(=O)n1C` (configuration not stated), for which the GI50 was inactive: > 100 µM.

As for `O=C(NNC(=S)Nc1ccccc1)c1nsc2ccccc12`, the GI50 was inactive: 32.4 µM.

Turning to `CC1=CCS(=O)(=O)C1C(O)C1=C(C)CCCC1(C)C` (configuration not stated), the GI50 is inactive: > 100 µM.

Turning to `COc1ccc(/C=C(/C(=O)c2ccc(Cl)cc2)N2C=CC=CC2=C(C#N)C#N)cc1OC`, the GI50 is inactive: 17.2 µM.

Regarding `COc1ccc(CC2COc3cc(OC)cc(OC)c3C2=O)cc1` (configuration not stated), the GI50 is inactive: 28.2 µM.

Turning to `CC1(C)N/C(=C\[N+](=O)[O-])C(C)(C)N1O`, the GI50 was inactive: > 10 µM.

For the molecule `CC(=O)OCc1cc(OC(C)=O)cnc1COC(C)=O`, the GI50 is inactive: > 100 µM.

For `O=C1NC(N2CCOCC2)=N/C1=C\c1ccc(Cl)cc1`, the GI50 was inactive: > 100 µM.

For `Cn1c([C@H](C#N)c2ncccc2[N+](=O)[O-])nc2ccccc21`, the GI50 was inactive: > 100 µM.

Turning to `Nc1cccc(S(=O)(=O)Nc2nnc(S(N)(=O)=O)s2)c1`, the GI50 is inactive: > 100 µM.

As for `COc1ccc2c(c1OC)OCC(CN(C)C)C2=O` (configuration not stated), the GI50 was inactive: 94.6 µM.

As to `CC(C)(C)OC(=O)NCCCNC1(c2cc3ccccc3s2)CCCCC1`, the GI50 is inactive: 14.3 µM.

Turning to `NNc1ccccc1Cl`, the GI50 is inactive: > 100 µM.

As for `Cn1c(=O)c(C(c2ccccc2)c2c(O)c3ccccc3n(C)c2=O)c(O)c2ccccc21`, the GI50 is inactive: > 100 µM.

`CC(C)(C)C1=NO[C@H]2[C@@H](NC(=O)c3ccccc3)CC[C@@H]12`: the GI50 is inactive: > 100 µM.

`CCCOc1ccc(/C(Cl)=C(\C=O)c2ccc(OC)c(OC)c2)cc1OCCC`: the GI50 is inactive: 5.66 µM.

On to `O=C1c2nc3n(c2C(=O)c2c1nc1n2CCC1)CCC3`, for which the GI50 was inactive: 4.3 µM.

With `Nc1ncnc2c1ncn2CCOC(c1ccccc1)P(=O)(O)O` (configuration not stated), the GI50 is inactive: > 100 µM.

On to `O=C(O)c1cc(-c2ccncc2)nc2ccccc12`, for which the GI50 is inactive: > 100 µM.

Turning to `CS(=O)(=O)N(N(CCCl)S(=O)(=O)c1ccccc1)S(C)(=O)=O`, the GI50 was inactive: > 100 µM.

As for `Cc1ccc2c(c1)c(=O)c1c(NCCN(C)C)ccc3nnn2c31`, the GI50 is inactive: 1.93 µM.

On to `Cc1occc1C(=S)Nc1ccc(Cl)c(/C=N/OC(C)(C)C)c1`, for which the GI50 is inactive: 17.5 µM.
